The results in this text go back to PubChem BioAssay (NCATS).

Experiment [1] can be described thus: qHTS Assay for Lipid Storage Modulators (AID 1519). The settings on record: Drosophila S3 cells, BODIPY lipid droplet/cell ratio, laser cytometry, cells loaded with oleic acid. Summed up: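 Cells seeded at 5,000 per well were treated with compounds over a concentration series and loaded with oleic acid (400 uM, as added). Lipid droplet fluorescence (488 nm excitation, 500-530 nm channel) was read by laser-scanning cytometry and normalized to 20 uM Triacsin C.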

A short description of experiment [2]: qHTS for identification of novel therapeutic agents for treatment of microphthalmiaassociated transcription factor (MiT) renal cell carcinoma (RCC) (AID 1963991). The following applies: CellTiter-Glo, 48 h; for z-score: stronger effect = lower value. Summed up: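 Curves over 11 concentrations were fitted to CellTiter-Glo luminescence, scaled between empty wells (0%) and DMSO (100%) viability. Cells were UOK109, UOK124 and UOK145 TFE3-fusion RCC lines at 500/well, exposed 48 hours at 37 C.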
(In general: Quantitative high-throughput screening tests each substance at several concentrations.)

The nature of experiment [3]: qHTS Assay for Inhibitors of PDE-IV (AID 607).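 Note: parental cells stimulated with forskolin 10 µM plus RO 20-1724 100 µM.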 The settings on record: HEK293 ACTOne CNG channel cells, membrane potential fluorescence; measured here: parental cell counter-screen. In a few lines:
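Cell-based read-out of cAMP via a modified cyclic nucleotide-gated channel and membrane potential dye (535/590 nm) in HEK293 cells expressing PDE4 endogenously. Compounds tested up to 22.9 uM final; 100 uM RO 20-1724 reference.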

The nature of experiment [4]: qHTS Assay for Modulators of Human Peripheral Myelin Protein 22 (PMP22) Expression/Activity (AID 1967). The settings on record: Cell-based PMP22 reporter, dual-color luciferase ratio. In a few lines: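 Readout is the corrected green/red luminescence ratio after 24 h compound exposure, normalised to untreated cells (0%). Engineered MSC80 mouse Schwann cells express green luciferase from the mouse Pmp22 promoter and red luciferase from EF-alpha as internal control.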

Experiment [5] is described as follows: S16 Schwann cell PMP22 intronic element beta-lactamase assay (AID 624044). Note: nearly all actives have a fitted effect of over 15% in size. The following applies: S16 rat Schwann cells, PMP22 element beta-lactamase FRET, 24 h. In a few lines: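 Rat S16 Schwann cells with beta-Lac driven by a PMP22 intronic element, compound-treated 24 h at 37 °C. LiveBLAzer FRET B/G read: 460 nm normalized to potassium clavulanate vs DMSO; 535 nm FRET as viability; concentration-effect curves classified.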

Experiment [6] can be described thus: qHTS drug screen for cell cycle checkpoint inhibitors in PARPi-resistant BRCA-mutant ovarian cancer cell lines. (AID 1963452). The following applies: PEO1/OlaR viability, CellTiter-Glo luminescence, 96 h. In a few lines:
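PEO1, PEO4 and PEO1/OlaR ovarian cancer cells, 600 per well, exposed 96 h at 37C to a dilution series. Viability read by CellTiter-Glo luminescence, normalized to DMSO and empty wells; activity summarized as Z-AUC.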

Setting [7] is: measured here: cell count channel max response.
The mark [8] stands for this setting: measured here: lipid (BODIPY) channel AC50.
[9] abbreviates: measured here: lipid channel max response.
Where [10] appears, read: TFE3-RCC UOK109 viability, measured here: UOK109 Z-AUC.
[11] abbreviates: TFE3-RCC viability, measured here: UOK124 Z-AUC.
[12] abbreviates: TFE3-RCC viability, measured here: UOK145 Z-AUC.
Where [13] appears, read: TFE3-RCC viability, measured here: UOK145 cell viability.
Where [14] appears, read: TFE3-RCC viability, measured here: UOK124 cell viability.
Setting [15] is: measured here: cell number channel AC50.
[16] abbreviates: measured here: green reporter channel AC50, mouse Pmp22 promoter in mouse Schwann cells.
The mark [17] stands for this setting: measured here: red reporter channel AC50, EF-alpha promoter control reporter in MSC80 mouse Schwann cells.

Values joined by “and” are separate entries in the source; they are usually repeats but may differ in a detail not shown here. Equal entries are not always repeated. The list shows a part of the results. Further columns of the screen follow, without active or inactive calls. For some assays here: The list favours compounds with an active or inconclusive main result. The note in brackets gives the kind of curve behind each potency; many fits are weak.
Tags give direction and shape of the fitted curve.

In the case of `O=C(O)C1CCCN(CCC=C(c2ccccc2)c2ccccc2)C1` (centres undefined), the max response was 48% in experiment [1] (setting [7]) and 49.2% in experiment [1] (setting [9]). Besides, the AC50 in experiment [1] (setting [8]) is 50.1 µM [rising, partial curve, poor fit]; in experiment [2] (setting [13]), 29.6 µM [falling, single point]. The figures for the z-score in experiment [2] (setting [10]), in experiment [2] (setting [11]) and in experiment [2] (setting [12]) were 0.917, 0.51 and 0.614, respectively.

In the case of `c1coc(CNc2ncnc3nc[nH]c23)c1`, the AC50 was 5.01 µM [rising, partial curve, poor fit] in experiment [3]; 2.51 µM [rising, full curve, poor fit] in experiment [1] (setting [8]); 0.00118 µM [falling, full curve, poor fit] in experiment [2] (setting [14]). The max response in experiment [1] (setting [7]) amounted to 31.9%; in experiment [1] (setting [9]), 50.7%. Moreover, the results for the z-score in experiment [2] (setting [10]), in experiment [2] (setting [11]) and in experiment [2] (setting [12]) were 0.851, 0.427 and 0.0465, respectively.

Turning to `c1ccc(C2CN3CCSC3=N2)cc1` (centres undefined), the max response came to 30.5% in experiment [1] (setting [7]) and 28.7% in experiment [1] (setting [9]). For the same molecule, the AC50 in experiment [1] (setting [15]) is 0.0251 µM [falling, full curve, poor fit]; in experiment [4] (setting [16]), 30.1 µM [rising, single point]; in experiment [4] (setting [17]), 30.1 µM [rising, single point].

For `FC(F)(F)c1ccccc1-n1ccnc1`, the max response in experiment [1] (setting [7]) is 89.5% and 30.5%; in experiment [1] (setting [9]), 122% and 14.7%. Also, the AC50 was 4.47 µM [rising, partial curve] in experiment [1] (setting [15]) and 95.3 µM [falling, single point] in experiment [4] (setting [17]).

In the case of `CC[C@@]1(O)C(=O)OCc2c1cc1n(c2=O)Cc2cc3c(CN(C)C)c(O)ccc3nc2-1`, the values for the max response in experiment [1] (setting [7]) and in experiment [1] (setting [9]) were -25% and -31%, respectively. The AC50 in experiment [1] (setting [8]) is 1.58 µM [falling, full curve, poor fit]; in experiment [5] (measured here: 460 nm blue channel), 7.94 µM [falling, partial curve]; in experiment [5] (measured here: 530 nm viability channel), 12.6 µM [rising, partial curve]; in experiment [6] (measured here: PEO1 parental viability) it was 0.245 µM [falling, full curve]; in experiment [6] (measured here: PEO4 viability) it was 0.616 µM [falling, full curve]; in experiment [2] (setting [14]), 0.833 µM [falling, full curve]. Also, the AC50 in experiment [2] (setting [13]) is 0.833 µM [falling, full curve].

Regarding `C[C@]12C=CC(=O)C=C1CC[C@H]1[C@@H]3C[C@@H](O)[C@](O)(C(=O)CO)[C@@]3(C)C[C@H](O)[C@@]12F`, the max response in experiment [1] (setting [7]) worked out at 18%; in experiment [1] (setting [9]), 15.8%. The AC50 was 15.8 µM [falling, partial curve, poor fit] in experiment [1] (setting [8]) and 75.7 µM [falling, single point] in experiment [4] (setting [17]).

In the case of `O=C1C(CCC(O)c2ccc(F)cc2)C(c2ccc(O)cc2)N1c1ccc(F)cc1` (centres undefined), the max response came to 25.2% in experiment [1] (setting [7]) and 44.1% in experiment [1] (setting [9]). In experiment [1] (setting [8]), the AC50 is 22.4 µM [rising, single point]. In addition, the z-score was found to be 0.324 in experiment [2] (setting [10]), 0.791 in experiment [2] (setting [11]) and 0.427 in experiment [2] (setting [12]).

For the molecule `O=C(O)/C=C/C(O)c1ccc(Cl)cc1` (centres undefined), the results for the max response in experiment [1] (setting [7]) and in experiment [1] (setting [9]) were -28.3% and -36.9%, respectively. The AC50 in experiment [1] (setting [15]) was 20 µM [falling, single point]; in experiment [4] (setting [16]) it was 67.5 µM [falling, partial curve, poor fit].

With `N#C/C(=C\c1ccc(O)c(O)c1)C(=O)Nc1ccccc1`, the max response in experiment [1] (setting [7]) was 31.4%; in experiment [1] (setting [9]), -4.17%. Further, the AC50 in experiment [1] (setting [15]) was 1.78 µM [rising, full curve, poor fit]; in experiment [4] (setting [17]), 47.8 µM [falling, partial curve].

Turning to `COCCc1ccc(OCC(O)CNC(C)C)cc1` (centres undefined), the max response in experiment [1] (setting [7]) is 25%; in experiment [1] (setting [9]), 35.9%. In addition, the AC50 in experiment [1] (setting [8]) is 0.112 µM [rising, full curve, poor fit]; in experiment [4] (setting [17]), 12 µM [rising, partial curve, poor fit].

Take `CCCn1c(=O)c2[nH]c(-c3ccc(OCC(=O)NCCN)cc3)nc2n(CCC)c1=O`: the figures for the max response in experiment [1] (setting [7]) and in experiment [1] (setting [9]) were -19.7% and -19.3%, respectively. Moreover, the half-maximal activity concentration (AC50) in experiment [1] (setting [8]) is 0.0355 µM [falling, full curve, poor fit]; in experiment [4] (setting [17]) it was 16.9 µM [rising, partial curve, poor fit].

What is called AC50 is the concentration at which the activity in the assay is half-maximal.
